{"source": "PubChem BioAssay AID463173", "about": "(ICCB-Longwood Screening Facility, Harvard Medical School, 2010)", "note": "Screen size: about 52,000 compounds; about 1,700 (3.3%) were called active. Rule as the data show it: active = survival mostly below about 52% (no sharp cut-off); inactive = mostly above about 56%. The list shows a part of the results."}
{"test_system": "Wild type", "test": "S. aureus survival, RN4220 and DeltatarO strains – OD600, teichoic acid synthesis inhibitors, primary screen (AID 463173)", "settings": "S. aureus RN4220 wild type/DeltatarO growth, OD600, 18 h, stronger effect = lower value, screened at 18.75 µg/mL (by protocol)"}
{"smiles": "Cc1ccc(S(=O)(=O)Cc2ccc(C(=O)N3CCN(c4cccc(Cl)c4)CC3)o2)cc1", "survival": "inactive: 73%"}
{"smiles": "O=C(Cn1c(=O)n(-c2ccc(Cl)cc2)c(=O)c2sc3ccccc3c21)NC1CCCC1", "survival": "inactive: 91%"}
{"smiles": "COCc1c(CSSCc2cnc(C)c(O)c2COC)cnc(C)c1O", "survival": "inactive: 107%"}
{"smiles": "CCOc1ccc(-c2c(C)nn3c(C)c(C(=O)NCCc4ccc(Cl)cc4)cnc23)cc1OCC", "survival": "inactive: 64%"}
{"smiles": "COC(=O)c1ccccc1NC(=O)c1cc2cc(C)ccc2n1C", "survival": "inactive: 109%"}
{"smiles": "O=C(CC1COc2ccccc2O1)NCCc1ccccc1", "note": "(centres undefined)", "survival": "inactive: 107%"}
{"smiles": "Cc1ccccc1OCC(=O)Nc1cccc(C(=O)OCc2cc(=O)n3c(C)csc3n2)c1", "survival": "inactive: 72%"}
{"smiles": "Cc1ccc(NC(=O)c2cc(S(=O)(=O)N3CCc4ccccc43)cn2C)c(Cl)c1", "survival": "inactive: 112%"}
{"smiles": "CCc1cccc(NC(=O)C2CCC(CNS(=O)(=O)c3ccc(Br)s3)CC2)c1", "note": "(centres undefined)", "survival": "inactive: 127%"}
{"smiles": "Cc1c(-n2c(O)c(C3=c4ccccc4=NC3=O)sc2=O)c(=O)n(-c2ccccc2)n1C", "survival": "inactive: 90%"}
{"smiles": "c1ccc(CN2CCN(c3ncnc4c3cnn4-c3ccccc3)CC2)cc1", "survival": "inactive: 88%"}
{"smiles": "CCc1nc2cccnc2n1-c1ccc(CC(=O)Nc2cccc(C)c2C)cc1", "survival": "inactive: 71%"}
{"smiles": "CCC1=Nc2cc(C(=O)NCCN(CC)CC)ccc2Sc2ccccc21", "survival": "inactive: 93%"}
{"smiles": "CCc1ccc(-n2nc(CO)c(C(=O)NCCCc3ccccc3)n2)cc1", "survival": "inactive: 111%"}
{"smiles": "Cc1ccc(C)c(S(=O)(=O)c2nnn3c2nc(NC2CCCCC2)c2sccc23)c1", "survival": "inactive: 65%"}
{"smiles": "Cc1ccc(C)c(N2CCN(C(=O)NCc3noc4ccc(C)cc34)CC2)c1", "survival": "inactive: 65%"}
{"smiles": "Cc1ccccc1Cn1c2ccccc2c2cnn(CC(=O)NCc3ccccn3)c(=O)c21", "survival": "inactive: 87%"}
{"smiles": "CCSc1ccccc1C(=O)Nc1ccc(-c2nc3ccccc3s2)c(O)c1", "survival": "inactive: 51%"}
{"smiles": "CCOc1ccc(C(=O)NC2CC(=O)N(c3ccc(C)cc3)C2)cc1OCC", "note": "(centres undefined)", "survival": "inactive: 75%"}
{"smiles": "CCOC(=O)c1cccc(NC(=O)C2Cc3ccccc3N2C(=O)c2ccccc2)c1", "note": "(centres undefined)", "survival": "inactive: 71%"}
{"smiles": "CC1CCN(S(=O)(=O)c2ccc3c(ccn3CCC(=O)NCc3ccccc3F)c2)CC1", "survival": "active: -6%"}
{"smiles": "Cc1ccc(-c2nc(NC(=O)CSc3nc(C)nc4sc5c(c34)CCCC5)ns2)cc1", "survival": "inactive: 68%"}
{"smiles": "Cc1ccc(Nc2nc3ccccc3c3nncn23)c(Cl)c1", "survival": "inactive: 132%"}
{"smiles": "Cc1ccc(C)c(Cn2c(=O)n(C(C)C)c(=O)c3oc4ccccc4c32)c1", "survival": "inactive: 81%"}
{"smiles": "Cc1ccccc1CNC(=O)CN1C(=O)C2CCCCN2c2ccc(C(=O)N3CCCC3)cc21", "note": "(centres undefined)", "survival": "inactive: 71%"}
{"smiles": "CCc1nn(CC(=O)N2CCCCC2)c(=O)c2cc3sc(C)cc3n12", "survival": "inactive: 88%"}
{"smiles": "Cc1ccccc1NC(=O)CCS(=O)(=O)c1cc(Br)cc2c1N(C(=O)C1CC1)CC2", "survival": "inactive: 85%"}
{"smiles": "Cc1sc2c(c1C)c(=O)n(Cc1ccccc1)c(=O)n2Cc1ccc(F)cc1", "survival": "inactive: 96%"}
{"smiles": "CCN(CC)CCCn1c(N)c(-c2nc3ccccc3[nH]2)c2nc(C#N)c(C#N)nc21", "survival": "inactive: 110%"}
{"smiles": "Cc1cccc(-n2ncc3c(Nc4ccc(C)c(Cl)c4)ncnc32)c1", "survival": "inactive: 146%"}
{"smiles": "COc1ccc(NC(=O)c2c(-c3ccccc3)c(-c3ccccc3)nn(C)c2=O)cc1OC", "survival": "inactive: 80%"}
{"smiles": "O=C(Nc1ccc2c(c1)N(C1CCCC1)C(=O)c1ccccc1S2)c1ccccc1F", "survival": "inactive: 98%"}
{"smiles": "COc1cccc(-n2c(CNC(=O)OC(C)(C)C)n[nH]c2=S)c1", "survival": "inactive: 110%"}
{"smiles": "COc1ccc(-c2cn3cccnc3n2)cc1NC(=O)Nc1ccc(Cl)cc1", "survival": "inactive: 82%"}
{"smiles": "COc1ccc2nc(C)cc(SCC(=O)O)c2c1", "survival": "inactive: 98%"}
{"smiles": "Cc1cccc(OCc2nnc(SCC(=O)N3c4ccccc4CCc4ccccc43)o2)c1", "survival": "inactive: 129%"}
{"smiles": "O=C(NCC1CCCO1)c1c[nH]c2ccccc2c1=O", "note": "(centres undefined)", "survival": "inactive: 106%"}
{"smiles": "O=C(Nc1ccc(S(=O)(=O)Nc2ncccn2)cc1)c1cc(=O)c2ccccc2o1", "survival": "inactive: 87%"}
{"smiles": "Cc1ccc(C(=O)c2oc3ccccc3c2NC(=O)COc2ccc(C(C)C)cc2)cc1", "survival": "inactive: 69%"}
{"smiles": "CCn1c(SCC(=O)N(C)C)nnc1-c1ccccc1", "survival": "inactive: 100%"}
{"smiles": "CCOc1ccc(NC(=O)c2cc(OC)nc3ccccc23)cc1", "survival": "inactive: 107%"}
{"smiles": "O=C1CCCC/C1=N\\Nc1ccc(CN2CCCCC2)cc1", "survival": "inactive: 117%"}
{"smiles": "O=C(CC1C(=O)N(c2ccccc2)C(=O)N1Cc1ccc(F)cc1)Nc1cccc(F)c1", "note": "(centres undefined)", "survival": "inactive: 74%"}
{"smiles": "CCOC(=O)Nc1ccc(C(=O)OC)cc1", "survival": "inactive: 98%"}
{"smiles": "O=C(Nc1cccc(C(=O)N2CCOCC2)c1)NC1CCCCC1", "survival": "inactive: 89%"}
{"smiles": "CCOc1ccc(NC(=O)c2ccc3c(c2)CCN3S(=O)(=O)CC)cc1", "survival": "inactive: 93%"}
{"smiles": "CCN(CC)C(=O)Cn1c(=O)cc(C)c2c(C)nn(-c3ccc(C)cc3)c21", "survival": "inactive: 74%"}
{"smiles": "COc1ccc(-c2cc(-c3ccccc3)nc3c2COc2ccc(F)cc2-3)cc1", "survival": "inactive: 80%"}
{"smiles": "CC(C)c1nn2c(=O)cc(COC(=O)c3ccc(NC(=O)C4CCCCC4)cc3)nc2s1", "survival": "inactive: 68%"}
{"smiles": "Cc1ccc(CSc2ncc(Cl)c(C(=O)NCc3ccccc3)n2)cc1", "survival": "inactive: 94%"}
{"smiles": "COc1cc2cc(C(=O)Nc3ccccc3)c(N)nc2cc1OC", "survival": "inactive: 113%"}
{"smiles": "Cc1ccc(S(=O)(=O)N2CCCc3cc(NS(=O)(=O)c4cc(C)ccc4C)ccc32)cc1", "survival": "inactive: 77%"}
{"smiles": "COc1ccc2[nH]c3c(c2c1)CCN(C(=O)c1cccc(Cl)c1)C3c1ccc(F)cc1", "note": "(centres undefined)", "survival": "inactive: 79%"}
{"smiles": "CCOC(=O)c1cc(-c2ccc(F)cc2)n(CC(=O)NC2CCCCCC2)c1C", "survival": "inactive: 71%"}
{"smiles": "CC1(C)CC(=O)C=C(NCCc2ccccc2)C1", "survival": "inactive: 126%"}
{"smiles": "Cc1nc2sccn2c(=O)c1S(=O)(=O)Nc1cc(Cl)ccc1O", "survival": "inactive: 82%"}
{"smiles": "CCCCN1CCc2nc(Nc3ccc(OC)cc3OC)ncc2C1", "survival": "inactive: 73%"}
{"smiles": "Cc1ccc(CN(Cc2ccco2)C(=O)c2ccc(OCC(C)C)cc2)cc1", "survival": "inactive: 90%"}
{"smiles": "COc1ccc(NC(=O)c2c(NC(=O)COc3ccccc3)sc3c2CCC(C(C)(C)C)C3)cc1", "note": "(centres undefined)", "survival": "inactive: 77%"}
{"smiles": "C/C(=N/OC(=O)CSc1nc(-c2ccco2)cc(C(F)(F)F)n1)c1ccccc1", "survival": "inactive: 88%"}
{"smiles": "Cc1ccc2c(c1)N(C(=O)N1CCC(C(=O)NCCc3ccc(Cl)cc3)CC1)CC(C)O2", "note": "(centres undefined)", "survival": "inactive: 87%"}
{"smiles": "Cc1ccc(C)c(N2CCN(C(=O)c3cc4c(=O)n(Cc5ccccc5)ccc4nc3C)CC2)c1", "survival": "inactive: 85%"}
{"smiles": "CCOc1cccc2c1N[C@@H](c1ccc(C(=O)O)cc1)[C@H]1CC=C[C@@H]21", "survival": "inactive: 78%"}
{"smiles": "Cc1cccc(NS(=O)(=O)c2ccc3[nH]c4c(c3c2)CCCCCC4)c1", "survival": "inactive: 64%"}
{"smiles": "Cc1ccc(-n2nc(C)c3c(C)c(CCC(=O)NCc4ccccc4Cl)c(C)nc32)cc1C", "survival": "inactive: 82%"}
{"smiles": "COc1ccc(NC(=O)C(Cc2ccccc2)NS(=O)(=O)c2ccc3c(c2)CCC(=O)N3)c(OC)c1", "note": "(centres undefined)", "survival": "inactive: 101%"}
{"smiles": "CCc1ccc(NC(=O)CN2C(=O)C(c3ccc(C)cc3)=NC23CCCCC3)cc1", "survival": "inactive: 77%"}
{"smiles": "Cc1cccc(Cn2cccc2CNS(=O)(=O)c2ccccc2F)c1", "survival": "active: -4%"}
{"smiles": "CCc1ccc(CNC(=O)Cn2nc(C)n3c(cc4cc(C)ccc43)c2=O)cc1", "survival": "inactive: 81%"}
{"smiles": "CCOC(=O)c1cccc(NC(=O)c2cc3ccccn3n2)c1", "survival": "inactive: 135%"}
{"smiles": "Cc1nonc1OCCNC(=O)C12CC3CC(CC(C3)C1)C2", "survival": "inactive: 109%"}
{"smiles": "O=C(Cn1c(=O)n(CC2CCC(C(=O)NCCc3ccccc3)CC2)c(=O)c2ccccc21)Nc1ccccc1", "note": "(centres undefined)", "survival": "inactive: 136%"}
{"smiles": "COc1ccc2sc(N(Cc3cccnc3)C(=O)C3CCCCC3)nc2c1", "survival": "inactive: 81%"}
{"smiles": "CCCCOc1ccc(C2=NC(c3ccncc3)=Nc3ccc(OCC)cc3N2)cc1", "survival": "inactive: 90%"}
{"smiles": "CCOc1ccccc1CNC(=O)C1CCN(c2nnc(-n3c(C)ccc3C)s2)CC1", "survival": "inactive: 85%"}
{"smiles": "Cc1cc(C)n2nc(CNS(=O)(=O)c3ccc(C)c(C)c3)nc2n1", "survival": "inactive: 84%"}
{"smiles": "CC(C)OCCCn1c(SCC(=O)c2ccccc2)nc2c(sc3ccccc32)c1=O", "survival": "inactive: 72%"}
{"smiles": "Cc1nn(-c2ccc(F)cc2)c(-n2cccc2)c1C(=O)NCCc1ccc(Cl)cc1", "survival": "inactive: 54%"}
{"smiles": "CCN(CC)CCOC(=O)c1ccc(NC(=O)Cn2ncc3c2-c2cc(C)ccc2OC3)cc1", "survival": "inactive: 72%"}
{"smiles": "O=C(C1CCN(S(=O)(=O)c2cccc3nonc23)CC1)N1CCN(c2cccc(Cl)c2)CC1", "survival": "inactive: 56%"}
{"smiles": "COc1ccc(NC(=O)CSc2nc3nc(C)c(Cc4ccccc4)c(C)n3n2)cc1OC", "survival": "inactive: 60%"}
{"smiles": "Cc1ccc(Cn2c(=O)c3ccccc3n3c(-c4cccc(O)c4)nnc23)cc1", "survival": "inactive: 92%"}
{"smiles": "CCOc1ccc(C2CC(c3c(O)n(C4CCCCC4)c(=O)[nH]c3=O)=Nc3ccccc3S2)cc1", "note": "(centres undefined)", "survival": "inactive: 83%"}
{"smiles": "O=C(Nc1sc2c(c1C(=O)NCc1cccnc1)CCCC2)c1cc(=O)c2ccccc2o1", "survival": "inactive: 90%"}
{"smiles": "Cc1ccc2nc(COc3ccccc3NC(=O)C(C)(C)C)cc(=O)n2c1", "survival": "inactive: 66%"}
{"smiles": "COc1cccc(CNC(=O)c2ccc(-c3nc(COc4ccccc4)c(C)o3)cc2)c1", "survival": "inactive: 80%"}
{"smiles": "Cc1ccc(CCNC(=O)c2cc3c(s2)-c2c(C)cccc2OC3)cc1", "survival": "inactive: 88%"}
{"smiles": "CCOC(=O)N1CCc2c(sc3c2c(=O)n(-c2ccccc2C(F)(F)F)c(=O)n3Cc2ccccc2C)C1", "survival": "inactive: 121%"}
{"smiles": "CN1C(=O)/C(=C/C=C2/Sc3ccccc3N2CCO)SC1=S", "survival": "inactive: 112%"}
